Results published in the RNAGym collection of RNA variant scans (doi:10.7554/elife.90254).
The source gives no read counts; variants with many changes may rest on few reads.

B1: LINE1-mini (parent)
chain: GGCAGAGCUCAACACAGCGUGGCAAAGUGGCUGUGGCUAGACUGCC

Variants of: B1
Test: self-cleavage, relative activity (ratio to wild type); higher = more cleavage; in vitro, sequencing; the parent is a self-cleaving ribozyme
U9A G27A U32A gave a self-cleavage of 0.13.
Variant U9A G27U C45A has a self-cleavage of 0.06.
Work on U9A G27U G35A yielded a self-cleavage of 0.04.
U9A G27U U28A showed a self-cleavage of 0.07.
Variant U9A G29A C42A has a self-cleavage of 0.04.
U9A G29U C37A A41C gave a self-cleavage of 0.04.
For U9A G30U C31A U32A C37U, the self-cleavage was 0.14.
Work on U9A G30U G36U yielded a self-cleavage of 0.06.
Work on U9A G33U U43G yielded a self-cleavage of 0.
With U9A G36C U38C the self-cleavage was 0.
In the case of U9A G36U C45U, the self-cleavage is reported as 0.48.
In the case of U9A U20A G21A G33U U34A G44A, the self-cleavage is reported as 0.2.
Variant U9A U20A G29A U34A G44C has a self-cleavage of 0.02.
For U9A U20A G33U, the self-cleavage was 0.06.
U9A U20C G29A gave a self-cleavage of 0.07.
U9A U20G A24U A25G showed a self-cleavage of 0.1.
Work on U9A U20G C23A G35U A39U yielded a self-cleavage of 0.11.
U9A U20G G27C showed a self-cleavage of 0.05.
Work on U9A U20G G30U C31U yielded a self-cleavage of 0.02.
For U9A U28G G35C C37A, the self-cleavage was 0.17.
U9A U32G U38C gave a self-cleavage of 0.13.
In the case of U9A U34C C42A, the self-cleavage is reported as 0.13.
With U9A U34C U38A the self-cleavage was 0.02.
U9A U38G C46A gave a self-cleavage of 0.15.
Variant U9A U38G G40C has a self-cleavage of 0.27.
Variant U9C A11C C15U G19A C31G U32C U34A C46A has a self-cleavage of 0.
With U9C A11G C13G C18A G29A C37U the self-cleavage was 0.01.
For U9C A11G G36C, the self-cleavage was 0.02.
In the case of U9C A11U C18U, the self-cleavage is reported as 0.01.
Variant U9C A11U U32A has a self-cleavage of 0.02.
U9C A12C U20C U28A G29C showed a self-cleavage of 0.
Variant U9C A12G A39U G44A has a self-cleavage of 0.01.
In the case of U9C A12G C13G C23U, the self-cleavage is reported as 0.01.
With U9C A12G C18G G21U C42U the self-cleavage was 0.01.
For U9C A12G G22U G29U G44C, the self-cleavage was 0.01.
For U9C A12G G36C G44A, the self-cleavage was 0.02.
Variant U9C A12G U34A C37G U38C A39G has a self-cleavage of 0.01.
Work on U9C A12U A26C A39C yielded a self-cleavage of 0.07.
Variant U9C A12U A26G has a self-cleavage of 0.03.
With U9C A14C A41U C45A the self-cleavage was 0.01.
U9C A14C C15U U28A U38G gave a self-cleavage of 0.
U9C A14C G27U G33A G40A A41G U43G gave a self-cleavage of 0.01.
Work on U9C A14C G44A yielded a self-cleavage of 0.07.
Variant U9C A14G A24C C31A G33C has a self-cleavage of 0.02.
In the case of U9C A14G G22C, the self-cleavage is reported as 0.03.
U9C A14G U20G G44A C45G gave a self-cleavage of 0.
Variant U9C A14U C23G A26C C46G has a self-cleavage of 0.02.
Work on U9C A14U G22A C23G A26C G33U C42A yielded a self-cleavage of 0.01.
Variant U9C A16C G21C G22A A41G has a self-cleavage of 0.01.
U9C A16C G22A A24C showed a self-cleavage of 0.
Work on U9C A16G C31U G40C G44A yielded a self-cleavage of 0.01.
For U9C A16U A24U G33A U34A, the self-cleavage was 0.01.
With U9C A16U G33C the self-cleavage was 0.
Work on U9C A24U C37U yielded a self-cleavage of 0.02.
U9C A25C G40C gave a self-cleavage of 0.
For U9C A25G U34C, the self-cleavage was 0.03.
Variant U9C A26C G40U C46G has a self-cleavage of 0.
Variant U9C A26C U28A has a self-cleavage of 0.02.
In the case of U9C A26U C37A U38C, the self-cleavage is reported as 0.02.
Variant U9C A26U G33U has a self-cleavage of 0.04.
Work on U9C A39G A41C yielded a self-cleavage of 0.03.
Work on U9C A41C C42U G44U C45G yielded a self-cleavage of 0.04.
For U9C C10A A39G, the self-cleavage was 0.
U9C C10A G33A A39C showed a self-cleavage of 0.03.
In the case of U9C C10A G33A A41U, the self-cleavage is reported as 0.02.
Work on U9C C10G A39G G40U yielded a self-cleavage of 0.01.
For U9C C10G C31A, the self-cleavage was 0.09.
For U9C C10G C37U, the self-cleavage was 0.01.
U9C C10G G29C G30A C37U gave a self-cleavage of 0.01.
Work on U9C C10G G36U C45G yielded a self-cleavage of 0.04.
Variant U9C C10G U38C has a self-cleavage of 0.
U9C C10U C13U A14C G33A showed a self-cleavage of 0.01.
In the case of U9C C10U U34A, the self-cleavage is reported as 0.05.
With U9C C13A C15G C31G the self-cleavage was 0.
U9C C13G A26C U34A showed a self-cleavage of 0.01.
Variant U9C C13G G30U C42A has a self-cleavage of 0.01.
U9C C13G U32A G36C C46U gave a self-cleavage of 0.01.
With U9C C13U G27A G30U the self-cleavage was 0.02.
With U9C C13U G30U U38C C42U the self-cleavage was 0.
Variant U9C C13U G33C has a self-cleavage of 0.
U9C C13U U32A showed a self-cleavage of 0.06.
Variant U9C C15G G21A G44U has a self-cleavage of 0.01.
For U9C C18U G30U, the self-cleavage was 0.
U9C C37A A39U gave a self-cleavage of 0.04.
Variant U9C G17C C18G has a self-cleavage of 0.02.
U9C G17C G40A C45G gave a self-cleavage of 0.01.
For U9C G17C U20G U38G U43A, the self-cleavage was 0.01.
In the case of U9C G17U A26U, the self-cleavage is reported as 0.02.
For U9C G19A U38C C42G, the self-cleavage was 0.04.
U9C G19C A25U gave a self-cleavage of 0.02.
U9C G19C U28A gave a self-cleavage of 0.03.
Work on U9C G19U G35A yielded a self-cleavage of 0.03.
U9C G21C G29C G44C gave a self-cleavage of 0.03.
In the case of U9C G21U G30U C31A C42U, the self-cleavage is reported as 0.02.
U9C G21U U28C gave a self-cleavage of 0.
With U9C G22A C31G A41U C42A the self-cleavage was 0.01.
Work on U9C G22A G33A C37U yielded a self-cleavage of 0.01.
U9C G22C C37G gave a self-cleavage of 0.02.
With U9C G22U A41C the self-cleavage was 0.04.
In the case of U9C G27C G35U G36C C46A, the self-cleavage is reported as 0.01.
Work on U9C G29C G33U yielded a self-cleavage of 0.03.
U9C G30U C31U C37G U38C A39U showed a self-cleavage of 0.07.
In the case of U9C G33A A39C G40U, the self-cleavage is reported as 0.02.
For U9C G35A A39C, the self-cleavage was 0.01.
For U9C G35C G40A C42G, the self-cleavage was 0.01.
U9C G35U C37U gave a self-cleavage of 0.05.
In the case of U9C G36A A41C U43A, the self-cleavage is reported as 0.02.
In the case of U9C G36C C42A, the self-cleavage is reported as 0.01.
With U9C G36U G40A the self-cleavage was 0.1.
U9C G40U C45U showed a self-cleavage of 0.16.
In the case of U9C U20C A26C A39G, the self-cleavage is reported as 0.03.
In the case of U9C U20C G40C, the self-cleavage is reported as 0.01.
U9C U20C U38C showed a self-cleavage of 0.
With U9C U20G G29C A41G the self-cleavage was 0.02.
With U9C U32A C45U the self-cleavage was 0.
U9C U32C C42A gave a self-cleavage of 0.03.
U9C U32C G40U showed a self-cleavage of 0.01.
For U9C U32G U38C, the self-cleavage was 0.06.
With U9C U34A A41C the self-cleavage was 0.05.
For U9C U34G C45G, the self-cleavage was 0.01.
In the case of U9C U34G G40U, the self-cleavage is reported as 0.
For U9G A11C A25C C46U, the self-cleavage was 0.
In the case of U9G A11C C15G A25C G30C A41G, the self-cleavage is reported as 0.01.
U9G A11C G19A G30A gave a self-cleavage of 0.01.
For U9G A11C U28G G29A G35C, the self-cleavage was 0.01.
In the case of U9G A11G G30A, the self-cleavage is reported as 0.01.
With U9G A11U C31G U32G C37G the self-cleavage was 0.01.
U9G A11U G30U U43G showed a self-cleavage of 0.
With U9G A12C A14G G21U G27C G33U the self-cleavage was 0.01.
Work on U9G A12C C13U G29C yielded a self-cleavage of 0.01.
With U9G A12C C15G G27A G36U the self-cleavage was 0.01.
U9G A12C C18A showed a self-cleavage of 0.03.
With U9G A12C G21C A25C A26C C31G the self-cleavage was 0.
In the case of U9G A12C G27C, the self-cleavage is reported as 0.01.
Work on U9G A12U G17C A25G G33C yielded a self-cleavage of 0.01.
Variant U9G A12U U28A G30C C31G has a self-cleavage of 0.02.
In the case of U9G A14C A25G, the self-cleavage is reported as 0.05.
U9G A14C C46G showed a self-cleavage of 0.06.
With U9G A14C U34C the self-cleavage was 0.01.
Variant U9G A14G A16G U38A U43A has a self-cleavage of 0.
For U9G A14G G29U C45G, the self-cleavage was 0.02.
For U9G A14G G40A C42A, the self-cleavage was 0.04.
Variant U9G A14U G29C G40U has a self-cleavage of 0.05.
For U9G A16G C46A, the self-cleavage was 0.
In the case of U9G A16G G19U C37U C45G, the self-cleavage is reported as 0.04.
Work on U9G A16G U32A yielded a self-cleavage of 0.22.
U9G A16U U28G showed a self-cleavage of 0.01.
U9G A24C U38A showed a self-cleavage of 0.12.
U9G A24G G36U gave a self-cleavage of 0.02.
With U9G A25C G40U the self-cleavage was 0.03.
With U9G A25U U28G the self-cleavage was 0.07.
Variant U9G A26G C45A has a self-cleavage of 0.05.
Work on U9G A26G G27U yielded a self-cleavage of 0.04.
Work on U9G A26G G35A G36A G44U yielded a self-cleavage of 0.01.
Work on U9G A26G G36C yielded a self-cleavage of 0.02.
U9G A26U G33A G35U U43A showed a self-cleavage of 0.01.
Variant U9G C10A C18G C31G has a self-cleavage of 0.02.
With U9G C10A G17A A26C the self-cleavage was 0.03.
U9G C10G C13G A16U U20G G36A U43C showed a self-cleavage of 0.01.
With U9G C10G G19U U28A G29A the self-cleavage was 0.02.
In the case of U9G C10G U20G U32C, the self-cleavage is reported as 0.01.
With U9G C10G U28A U32C the self-cleavage was 0.
Work on U9G C10U A14U yielded a self-cleavage of 0.05.
With U9G C10U A16U G36A the self-cleavage was 0.01.
U9G C10U A25G showed a self-cleavage of 0.01.
In the case of U9G C10U C23G, the self-cleavage is reported as 0.34.
Variant U9G C13A A41U has a self-cleavage of 0.05.
